Over roughly 33,000 sequences, “E-score (-0.5 to 0.5)” has its median near -0.054; the highest 2% begin near 0.35. The list shows a part of the results.
Biological target: T1, Stb5 (UniProt P38699)
T1 sequence: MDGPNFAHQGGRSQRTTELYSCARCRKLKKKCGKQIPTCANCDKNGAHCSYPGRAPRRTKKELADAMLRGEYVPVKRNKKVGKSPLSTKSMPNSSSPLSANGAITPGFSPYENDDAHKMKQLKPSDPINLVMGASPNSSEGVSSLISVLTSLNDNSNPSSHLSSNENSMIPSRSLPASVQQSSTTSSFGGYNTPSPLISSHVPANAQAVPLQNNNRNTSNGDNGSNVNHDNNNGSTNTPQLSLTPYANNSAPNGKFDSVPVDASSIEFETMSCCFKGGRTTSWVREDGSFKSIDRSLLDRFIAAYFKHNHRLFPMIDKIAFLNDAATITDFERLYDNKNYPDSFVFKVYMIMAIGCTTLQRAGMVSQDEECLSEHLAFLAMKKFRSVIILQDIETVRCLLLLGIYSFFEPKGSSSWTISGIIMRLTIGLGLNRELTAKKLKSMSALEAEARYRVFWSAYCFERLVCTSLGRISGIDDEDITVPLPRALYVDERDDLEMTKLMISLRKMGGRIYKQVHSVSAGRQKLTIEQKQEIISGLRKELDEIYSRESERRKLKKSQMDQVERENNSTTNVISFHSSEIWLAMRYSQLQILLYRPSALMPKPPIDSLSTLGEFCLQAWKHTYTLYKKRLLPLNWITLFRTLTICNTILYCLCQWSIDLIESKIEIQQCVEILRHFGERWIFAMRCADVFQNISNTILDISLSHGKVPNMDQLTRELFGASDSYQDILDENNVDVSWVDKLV
Assay: PBM E-score (8-mer binding enrichment) (E-score (-0.5 to 0.5)); higher = stronger / more preferred TF binding; most listed sequences are background and not binding sites
Details: protein concentration: 200 nM; construct: GST-full length
Method in brief: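 Yeast transcription factors, full-length or as DNA-binding domains, were expressed with a GST tag using PURExpress in vitro transcription/translation. At about 100-200 nM they were applied to universal all-10-mer Agilent arrays, double-stranded by primer extension on fresh or once-stripped slides. Fluorescent anti-GST detected bound protein, and masliner normalised the scans. E-scores for ungapped eight-base words, pooled with reverse complements, came from the Universal PBM Analysis Suite.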

| Sequence | PBM E-score |
| --- | --- |
| ACTTGAGA | -0.106 |
| AATGTAGT | -0.128 |
| AACATGTA | -0.0625 |
| AATCTTAT | 0.0972 |
| GTTTTCGA | -0.115 |
| CACAAATC | 0.0762 |
| CATTGGTC | -0.129 |
| GGGGTGGA | 0.0436 |
| AACGAAAG | -0.136 |
| AAAGTTCC | 0.163 |
| TCATGAAA | 0.112 |
| GAGCCGGC | 0.308 |
| AGTTTATG | -0.0857 |
| CAGTTCGG | 0.206 |
| ATGTGTCG | -0.145 |
| CACCTCTC | -0.132 |
| CTAAGATA | -0.134 |
| CGTGAGCC | 0.00989 |
| ATCCTCCG | 0.233 |
| CTAGTAAC | -0.213 |
| GACAATAA | 0.0907 |
| CGACACTC | 0.144 |
| ATCGTCGC | -0.0423 |
| CAGCGCGG | 0.286 |
| ATTGATGG | -0.0545 |

| Sequence | PBM E-score |
| --- | --- |
| CGACGGAG | 0.339 |
| CACCGGTG | 0.408 |
| CCGTTCAC | 0.0154 |
| GAAGGTCA | -0.15 |
| CCTACGAA | -0.0721 |
| ACCTCCTC | -0.105 |
| CTTGTGTA | -0.265 |
| CCGAAAGA | 0.196 |
| CGCATCGC | -0.062 |
| CCCTTCTC | -0.0563 |
| GAATCTCC | 0.288 |
| GGACTTGA | 0.132 |
| CGGACGAA | 0.215 |
| ACGGGCCC | 0.253 |
| ATTAAACC | 0.108 |
| ATTCTTGG | -0.0109 |
| AGACCCCT | -0.373 |
| ATCAATGA | -0.134 |
| GGCCCACC | -0.0357 |
| CGATTCTC | -0.0524 |
| ACGTACTA | -0.237 |
| GAGGGGAA | -0.12 |
| CCTACTCC | -0.149 |
| GACCCGCA | 0.164 |
| GCGCTCCA | -0.0469 |

| Sequence | PBM E-score |
| --- | --- |
| ATCTATAG | -0.186 |
| ACATCAAG | -0.153 |
| CTGATCCA | -0.197 |
| CGCGCTCC | 0.0607 |
| AACTCCGG | 0.436 |
| GAGTGCTA | -0.191 |
| AGTTTGTC | -0.0395 |
| TGAACCAA | -0.321 |
| AAATCAAA | -0.0611 |
| ATCGCTAC | -0.0504 |
| AGTTACCG | 0.255 |
| ACGGTATG | 0.132 |
| CATATTCG | 0.0955 |
| GCGTATAA | 0.149 |
| GTAGACAA | -0.111 |
| AATATAGG | -0.0737 |
| CTGGCTCA | -0.15 |
| CGTGGGAC | -0.0112 |
| TCGAACAA | -0.12 |
| ACATCTGG | 0.141 |
| GAAGGAGC | -0.178 |
| GAATTGAC | -0.086 |
| CCAGGGCG | 0.139 |
| ATGCCTTG | -0.177 |
| CTCCACGA | 0.0441 |

| Sequence | PBM E-score |
| --- | --- |
| AAAGAGCG | 0.191 |
| AACAAGCC | -0.176 |
| GCCCCACA | -0.196 |
| GCGGGTCC | 0.103 |
| GCTATTCC | 0.069 |
| CGTCCTTA | -0.0806 |
| TCGGGGCA | 0.227 |
| TCATCGGA | 0.23 |
| CCAGAAGG | 0.00315 |
| GTGCTTAA | 0.0288 |
| CGCTAACC | 0.146 |
| TAGGATAA | -0.0737 |
| ATCGTCAC | 0.0193 |
| GACCTCCC | -0.0892 |
| ACATTTTC | 0.00225 |
| ATCCTAAA | 0.13 |
| GGACATGA | 0.113 |
| ACTGACAA | -0.16 |
| GCAAGTCA | -0.116 |
| ACAACTAA | -0.117 |
| ACCTAATA | -0.0293 |
| GCGCCCGA | 0.177 |
| AGTTTTAG | 0.00564 |
| GTTACTTA | 0.0421 |
| AAGACGCA | -0.0754 |

| Sequence | PBM E-score |
| --- | --- |
| CACCAGAG | -0.323 |
| TAGCGACA | -0.139 |
| AAATAAGG | -0.0269 |
| AGCTCCAC | 0.0464 |
| ACACGATG | -0.258 |
| AGGAAGAC | -0.132 |
| GCATTAAC | 0.138 |
| ATCGGCGC | 0.291 |
| ACGCCTCA | -0.328 |
| GGTATAAC | 0.192 |
| ATCACAAT | -0.14 |
| CACGGAAA | 0.0619 |
| TAGATGGA | -0.124 |
| GAGTCCGC | 0.371 |
| GTAGAATA | -0.0512 |
| GGACGCAC | 0.0749 |
| CTAGCAAC | 0.0401 |
| ACGTGACG | -0.0173 |
| TCCACGCA | -0.0145 |
| GTATCGGA | 0.263 |
| ACACGAAT | -0.0603 |
| CAGCTCGG | 0.0984 |
| AACCTAAT | -0.0428 |
| AAGCCAGA | -0.169 |
| AATATGAA | 0.00094 |

| Sequence | PBM E-score |
| --- | --- |
| CTGCCTGA | -0.0444 |
| ACTACCGA | 0.305 |
| ATTCCGCG | 0.156 |
| CTCCAGAG | -0.057 |
| GTGACATA | 0.0552 |
| AGGACTGG | -0.338 |
| CCTCCTAG | -0.267 |
| GGGTGTAA | 0.251 |
| ACCAAGGG | -0.0724 |
| AATTCAAA | -0.185 |
| ATAGTCAA | -0.138 |
| GGTCGCGA | -0.0386 |
| AGGGTGCC | -0.154 |
| ACGGACAT | 0.41 |
| AGCAGACA | -0.246 |
| CACAAAGG | -0.164 |
| CCCAGTCC | -0.0375 |
| CCACAGCC | -0.196 |
| CCCACTGA | -0.257 |
| CTACCTAA | -0.0868 |
| GGAATGTA | -0.0691 |
| GACTCTGC | -0.247 |
| AAAACTAC | 0.0614 |
| AGCTGGAC | -0.157 |
| CTTTGGCA | -0.23 |

| Sequence | PBM E-score |
| --- | --- |
| GGGCCAAC | 0.0117 |
| AAAAGGAA | -0.0269 |
| AACAGGAT | -0.27 |
| CCAATGTC | -0.25 |
| ACCGGACC | 0.354 |
| CATGGCTC | -0.0621 |
| CCCAGGGC | -0.111 |
| GGTCAAAA | -0.043 |
| CATGTGAA | -0.0828 |
| GATAACAA | 0.0139 |
| GATGGCCC | -0.0196 |
| GAAGACTA | -0.219 |
| GCTACTTA | -0.238 |
| ATGGCGTA | -0.172 |
| ACTAACGG | 0.166 |
| AGGGTGGC | 0.0159 |
| CGCTCGAG | 0.0191 |
| GCGTCCCC | -0.0604 |
| CATGGTGA | 0.0525 |
| ACTCGCCT | -0.178 |
| CTACTCCA | -0.107 |
| GACTGAGA | -0.148 |
| ACCGACCT | 0.287 |
| CTCCACGC | -0.0632 |
| CCCTAGTA | 0.0857 |

| Sequence | PBM E-score |
| --- | --- |
| GTAGGCCA | -0.106 |
| CAGTGGCG | -0.0241 |
| AGATGCTC | 0.0113 |
| ACGTGTTG | -0.146 |
| CGTCCCAG | -0.114 |
| CGACATAA | 0.0929 |
| GAAGTTGC | -0.188 |
| ACCGATGG | 0.269 |
| AGCTATAC | 0.202 |
| CTCGCAGC | -0.161 |
| AGTCGGCG | 0.239 |
| GAAGTTTA | 0.145 |
| ACTCGTGC | -0.0294 |
| GAGGGATC | -0.108 |
| GACGACTC | -0.141 |
| ACCTTAGT | -0.162 |
| CCCAACGA | -0.0919 |
| CCAACGCA | 0.00504 |
| TAAGCAGA | -0.126 |
| AGACCTCA | -0.215 |
| AACCTGAC | -0.256 |
| AGGACTCA | -0.225 |
| AGGTACTC | -0.242 |
| CACGATCA | -0.266 |
| CGCATGCC | 0.0316 |

| Sequence | PBM E-score |
| --- | --- |
| ACCTGCGG | 0.234 |
| AATGTCCT | -0.063 |
| ATGGCTCA | -0.329 |
| AGCTGAAA | -0.0824 |
| ATGTGGGA | -0.15 |
| GAACATTC | -0.161 |
| GCTGTACA | -0.156 |
| AATTTGCG | 0.00674 |
| CGAGGGTC | 0.00967 |
| GAGGCGAA | -0.0203 |
| CTTGACAA | 0.0185 |
| GGCCTGAC | 0.204 |
| ACATTAGG | -0.128 |
| GACAAGCA | -0.0877 |
| AAGCTCGT | -0.157 |
| GAGCGAGA | -0.0607 |
| ATTCTTTC | 0.0717 |
| CACTGGAA | -0.276 |
| ACTGGAAA | -0.0915 |

Reference: the supplement of paper PMC3334620
